Reference: publication PMC4336329 (PLoS ONE, 2015)
The whole screen tested about 310,000 compounds, of which about 14,000 (4.5%) showed an effect of 50% or more. Effects have a minus sign here. This is one part of the list.

Target: human ether-à-go-go-related gene (hERG) potassium channel (human, UniProt Q12809)
Experiment: primary screen, population patch clamp on CHO cells stably expressing hERG
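Note: peak tail current of the secondary pulse compared with the same well before compound.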

Sequence of human ether-à-go-go-related gene (hERG) potassium channel (Q12809 whole entry, looked up): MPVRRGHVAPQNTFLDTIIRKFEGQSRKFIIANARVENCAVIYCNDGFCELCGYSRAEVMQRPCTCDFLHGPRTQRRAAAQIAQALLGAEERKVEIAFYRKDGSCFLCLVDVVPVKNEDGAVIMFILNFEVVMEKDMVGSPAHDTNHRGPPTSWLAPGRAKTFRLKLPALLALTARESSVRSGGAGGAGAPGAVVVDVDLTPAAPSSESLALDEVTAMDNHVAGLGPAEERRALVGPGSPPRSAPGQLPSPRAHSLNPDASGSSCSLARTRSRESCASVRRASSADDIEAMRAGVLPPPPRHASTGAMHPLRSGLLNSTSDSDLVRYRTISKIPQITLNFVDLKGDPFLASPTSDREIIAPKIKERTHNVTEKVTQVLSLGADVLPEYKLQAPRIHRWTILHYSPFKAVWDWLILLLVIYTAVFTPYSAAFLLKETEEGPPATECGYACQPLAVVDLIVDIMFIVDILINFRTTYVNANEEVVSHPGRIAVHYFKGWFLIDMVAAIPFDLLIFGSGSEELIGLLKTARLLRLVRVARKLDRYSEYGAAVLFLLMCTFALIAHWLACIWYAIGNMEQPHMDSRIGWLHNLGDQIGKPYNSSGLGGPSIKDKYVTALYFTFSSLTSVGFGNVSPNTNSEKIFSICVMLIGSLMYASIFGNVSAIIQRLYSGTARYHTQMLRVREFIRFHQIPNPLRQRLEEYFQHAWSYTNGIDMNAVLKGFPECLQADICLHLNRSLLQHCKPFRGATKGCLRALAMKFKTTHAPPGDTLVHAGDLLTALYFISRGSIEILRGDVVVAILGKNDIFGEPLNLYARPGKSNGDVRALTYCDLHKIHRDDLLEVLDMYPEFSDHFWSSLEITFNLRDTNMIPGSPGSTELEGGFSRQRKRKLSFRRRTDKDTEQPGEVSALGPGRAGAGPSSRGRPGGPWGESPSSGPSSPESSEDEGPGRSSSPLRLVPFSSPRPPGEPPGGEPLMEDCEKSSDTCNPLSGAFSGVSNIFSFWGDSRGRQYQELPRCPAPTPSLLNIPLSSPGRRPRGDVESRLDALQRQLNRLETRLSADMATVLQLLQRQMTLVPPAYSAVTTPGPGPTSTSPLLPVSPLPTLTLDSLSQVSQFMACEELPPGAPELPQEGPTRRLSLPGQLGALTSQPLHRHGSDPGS

| SMILES | hERG current change (%, negative = inhibition) at 10uM [%] |
| --- | --- |
| O=C(NCc1ccc(N2CCCC2=O)cc1)c1cnccn1 | 34.6 |
| COc1ccc(C(=O)CCC(=O)N2CCN(c3ccc(N4CCOCC4)nn3)CC2)cc1 | -12.8 |
| COc1ccc(CNc2nc(NCc3ccc(OC)cc3)n(C(=O)c3ccccc3[N+](=O)[O-])n2)cc1 | -8.02 |
| CCC1=Nc2cc(C(=O)NCc3ccco3)ccc2Sc2ccc(C)cc21 | -0.612 |
| CCN(C(=S)NC(=O)c1ccccc1Br)C1CCCCC1 | 9.24 |
| C#CCNC(=O)C1=C[C@H](c2ccc3c(c2)OCO3)[C@@H](CCCO)[C@H](OCC)O1 | 2.22 |
| COc1cccc(NC(=S)Nc2cccnc2)c1 | -3.48 |
| CCC(Sc1nc2ccccc2o1)C(=O)Nc1nnc(C)s1 (stereo not shown) | -12.4 |
| CCN(CC)S(=O)(=O)c1ccc(Cl)c(NC(=O)COC(=O)/C=C/c2ccc(O)c(OC)c2)c1 | 20.7 |
| Cc1nn(Cc2ccc(Cl)cc2)c2sc(C(=O)O)cc12 | 31.1 |
| Cc1ccc(S(=O)(=O)N2CCCCC2)cc1NC(=O)CNc1ccccc1N1CCCC1=O | -13 |
| Cc1ccc(C)c(NC(=O)CSc2nnc(-c3cc(C)[nH]n3)n2N)c1 | -7.21 |
| CCCC(=O)Nc1cc(C)c2c(=O)oc3ccccc3c2n1 | -5.16 |
| N#CC1=C(N)Oc2cc(O)ccc2C1c1ccncc1 (stereo not shown) | 1.64 |
| Cc1ccc(OCC(=O)OCC(=O)c2cccc([N+](=O)[O-])c2)cc1C | 7.05 |
| COc1ccc(NC(=O)Cn2nnc(C(=O)NCc3ccc(C)cc3)c2N)cc1Cl | 6.93 |
| O=C1CCCC(O)=C1C=Nc1ccc2c(c1)oc1ccccc12 | 8.69 |
| FC(F)(F)c1cnc(-c2cnc(-c3cccnc3)nc2)c(Cl)c1 | 11.6 |
| O=C(Cc1ccc(F)cc1)OCN1C(=O)c2ccccc2C1=O | -11.9 |
| O=C(c1ccncc1)N1N=C2CCCCCC2C1(O)C(F)(F)F (stereo not shown) | 13.2 |
| Cc1ccccc1N(CC(=O)NCc1ccc2c(c1)OCO2)C(=O)C1CSC(=O)C1 (stereo not shown) | -7.91 |
| COCCNC(=O)CNC(c1ccccc1)c1ccccc1.O=C(O)C(=O)O | 6.88 |

| SMILES | hERG current change (%, negative = inhibition) at 10uM [%] |
| --- | --- |
| CCC1=C(OC(=O)N(CC)CC)N2C(=O)OC(=NCC(=O)OC)[C@]2(Cc2ccccc2)[C@H]2C1=CC[C@H]1C(=O)N(c3ccccc3)C(=O)[C@H]12 | -23.7 |
| COc1ccc(CCNC(=O)COC(=O)c2cnc(C)cn2)cc1OC | 13.1 |
| CCN1CCN(CC(=O)N2c3ccccc3CC2C)CC1.O=C(O)C(=O)O (stereo not shown) | 2.13 |
| COc1ccc(C(=O)Oc2cccc(Nc3ncnc4ccccc34)c2)cc1OC | -21.3 |
| Cc1ccc(N(CC(=O)NCc2ccccc2)C(=O)c2csnn2)c(C)c1 | 16.3 |
| COc1ccc(S(=O)(=O)N2CCN(C(=O)NC3CCCCC3)CC2)cc1 | -21.4 |
| O=C(NC1CCCC1)c1ncn[nH]1 | 7.66 |
| CC(=O)N(c1ccc(C(F)(F)F)cc1)S(=O)(=O)c1ccc(N2C(=O)CCC2=O)cc1 | 13.1 |
| CC1CN(Cc2nc3c(c(=O)[nH]c(=O)n3C)n2CC(N)=O)CC(C)O1 (stereo not shown) | -1.64 |
| COc1ccc(Nc2nc(C)cc(C)c2C#N)cc1OC | 10.3 |
| Cc1cccc(C)c1NC(=O)CNC(=O)CCCN1C(=O)c2cccc3cccc(c23)C1=O | 7.37 |
| COc1cc(C(=O)NCCC(=O)NCCCN2CCCCC2C)cc(OC)c1OC (stereo not shown) | -2.45 |
| O=C(O)/C(=C\c1ccccc1Cl)c1ccc(S(=O)(=O)N2CCCCC2)s1 | 22.7 |
| CCCCOc1ccccc1C1NC(=O)NC(C)=C1C(=O)OCCOCC (stereo not shown) | -8.27 |
| COc1ccccc1CNc1nc(=S)[nH]c2cc(OC)c(OC)cc12 | -11.8 |
| [O-]C1=N/[N+](=C/c2ccc(Cl)c(Cl)c2)CC1 | 14.4 |
| CCOC(=O)C1CCCN(C(=O)c2csc(-c3ccc4c(c3)CCO4)n2)C1 (stereo not shown) | -8.82 |
| Cc1ccc(SCCC(=O)N2CCC(C(N)=O)CC2)cc1 | -7.54 |
| CC(C)C(=O)NNC(=O)C1CC1(c1ccccc1)c1ccccc1 (stereo not shown) | 16.9 |
| COc1ccc(/C=N/NC(=O)c2nonc2N)cc1OC | 9 |
| O=C(NN=C1CCCCCCC1)C(=O)NC1CCCCC1 | -13.6 |
| CCOC(=O)c1[nH]c(=O)c2ccccc2c1O | -9.53 |

| SMILES | hERG current change (%, negative = inhibition) at 10uM [%] |
| --- | --- |
| COc1ccc(C(=O)NC(CCSC)C(=O)N2CCCCCC2)cc1 (stereo not shown) | 0.159 |
| CCN(CC)C(=O)c1ccccc1NC(=O)c1ccccc1 | 8.85 |
| Cc1n[nH]c(C)c1CCNC(=O)C1CCC(=O)N(Cc2ccccc2F)C1 (stereo not shown) | 14.4 |
| COc1ccc(CNC(=O)c2csc(Cc3ccc(Cl)cc3)n2)cc1 | 6.63 |
| O=c1c2ccccc2cnn1Cc1n[nH]c(=S)n1-c1ccccc1Cl | 23.2 |
| CC(C)[C@H](NC(=O)c1ccco1)C(=O)OCC(=O)Nc1ccccc1OC(F)F | 5.69 |
| COc1cc(/C=N/NC(N)=O)ccc1OCC(=O)Nc1ccc(C)c(C)c1 | -10.7 |
| Cc1ccccc1NC(=S)NC(C)C(c1ccccc1)N1CCN(C)CC1 (stereo not shown) | -12.5 |
| CCSc1nnc(NC(=O)Cc2cc(OC)c(OC)c(OC)c2)s1 | 8.27 |
| COCC1CCN(Cc2nc(-c3ccc(OC)cc3)no2)CC1 | 16.2 |
| COc1ccc(NCC(=O)N/N=C/c2c(C)nn(Cc3ccccc3)c2Cl)cc1 | -15 |
| COc1ccc(-c2cn(-c3ccc(C)c(Cl)c3)c(=S)[nH]2)cc1OC | 21.8 |
| COc1ccc(-c2cnc(NCc3cc4c(cc3[N+](=O)[O-])OCO4)n2C)cc1 | -48.4 |
| COc1cccc(Cn2c(=S)[nH]c3ccc(N4CCOCC4)cc3c2=O)c1 | -8.19 |
| O=C(CNC(=O)c1cccc(F)c1)OCc1cc(=O)n2cc(Br)ccc2n1 | -9.66 |
| Cc1cc(Cl)c2oc(C(=O)N(C)C3CCOC3)c(C)c2c1 (stereo not shown) | -2.84 |
| COC(=O)c1ccc(C2/C(=C(\O)c3ccc4c(c3)OCCO4)C(=O)C(=O)N2CCCN2CCOCC2)cc1 (stereo not shown) | 20.3 |
| C[C@H](NC(=O)c1ccccc1Cl)C(=O)OC(C(=O)Nc1cc(C(F)(F)F)ccc1Cl)c1ccccc1 (stereo partly shown) | 10.1 |
| CCCSc1nsc(NC(=O)Nc2ccc(F)cc2F)n1 | 16 |
| CN(CC(=O)Nc1c(Cl)cccc1Cl)C(=O)CNC(=O)c1ccco1 | 7.01 |
| CCOc1ccc(NC(=O)c2ccc(-n3cccn3)nc2)cc1 | 18.7 |
| COc1ccc(/C=C2\N=C(c3ccc(C)cc3)OC2=O)cc1 | 16.7 |

| SMILES | hERG current change (%, negative = inhibition) at 10uM [%] |
| --- | --- |
| CC1(C(=O)NCCCNc2ncc(C(F)(F)F)cc2Cl)C=CCN1C(=O)c1ccccc1 (stereo not shown) | -56.4 |
| Cc1nn(C2CCOC(C)(C)C2)c2c1C(c1ccc3c(c1)OCO3)SCC(=O)N2 (stereo not shown) | -6.19 |
| CCOC(=O)C(C)Sc1nc2c(c(=O)[nH]c(=O)n2C)n1Cc1ccc(Cl)cc1 (stereo not shown) | -75 |
| COc1ccc(NC(=O)CC(C)n2ccnc2)cc1 (stereo not shown) | 18.4 |
| O=C(Cc1cccs1)Nc1nnc(SCC(=O)NC2CCCCC2)s1 | 7.84 |
| C#CCOCCOCCOCCNc1nc(N2CCN(C(=O)C([C@@H](C)CC)n3cc(C(N)CC(C)C)nn3)CC2)nc(N2CCN(C(=O)[C@H](CCC(=O)O)n3cc(C(N)CC(C)C)nn3)CC2)n1.Cl (stereo partly shown) | 17.3 |
| Nc1ccn(CC(=O)NCCCc2ccccc2)c(=O)n1 | 4.9 |
| COC(=O)CC1C(=O)NCCN1C(=O)OC(C)(C)C (stereo not shown) | 11.5 |
| Cc1cc2c(nc1C)CCCN2C[C@@H](C)O/N=C1/[C@H]2CCn3c(=O)n(-c4ccccc4)c(=O)n3[C@H]2[C@H](O)[C@@H]2O[C@H]12 | -32.9 |
| O=C1C2CC=C(Cl)CC2C(=O)N1CC1OCCc2ccccc21 (stereo not shown) | -9.17 |
| COc1ccccc1CN1CCCC(C(=O)c2ccccc2OC)C1 (stereo not shown) | -47.2 |
| CC(C)C(=O)Nc1ccc2c(c1)C(=O)NC2=O | 14.3 |
| O=C(CSC(=S)N1CCCC1)NCC(=O)Nc1ccccc1Br | -0.166 |
| CCOC(=O)c1c(-c2ccccc2)oc2cc(CN(C)C)c(O)c(CN(C)C)c12 | -41.5 |
| CCCc1nnc(NC(=O)CCC(=O)N2CCC(C)CC2)s1 | 14.8 |
| O=C(CN1CCN(S(=O)(=O)c2ccc(Br)cc2)CC1)Nc1ccc2c(c1)OCCO2 | -27.9 |
| O=C1CCC/C1=C/Nc1ccc(Cl)cc1 | -4.33 |
| Cc1cccc(-n2ncc(C(=O)NC3CCCC3)c2C2CCN(C(=O)OC(C)(C)C)CC2)c1 | -4.47 |
| COc1ccc(CCN2C(=O)C3C(C2=O)C2C=CC3C23CC3)cc1OC (stereo not shown) | -17.3 |
